Consider five substances from PMC3245299.

Chains of the proteins cited; added tags and fusions are not shown. Lines headed by an entry give the natural chain unless they say otherwise; changes in a name come on top. A line that says so, or that is headed by a name, gives the form on record, which may keep a tag or linker.
I2PP2A (SET, Taf-1β), endogenous in HEK293T cells (Q01105-2, form named): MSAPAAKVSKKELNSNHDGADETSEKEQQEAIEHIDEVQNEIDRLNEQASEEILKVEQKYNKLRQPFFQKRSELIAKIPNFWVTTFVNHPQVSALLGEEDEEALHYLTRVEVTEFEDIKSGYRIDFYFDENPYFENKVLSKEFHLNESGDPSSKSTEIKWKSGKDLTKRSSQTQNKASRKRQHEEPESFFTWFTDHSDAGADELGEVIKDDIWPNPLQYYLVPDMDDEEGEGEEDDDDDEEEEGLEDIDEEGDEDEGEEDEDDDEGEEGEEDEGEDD
UniProt P06748: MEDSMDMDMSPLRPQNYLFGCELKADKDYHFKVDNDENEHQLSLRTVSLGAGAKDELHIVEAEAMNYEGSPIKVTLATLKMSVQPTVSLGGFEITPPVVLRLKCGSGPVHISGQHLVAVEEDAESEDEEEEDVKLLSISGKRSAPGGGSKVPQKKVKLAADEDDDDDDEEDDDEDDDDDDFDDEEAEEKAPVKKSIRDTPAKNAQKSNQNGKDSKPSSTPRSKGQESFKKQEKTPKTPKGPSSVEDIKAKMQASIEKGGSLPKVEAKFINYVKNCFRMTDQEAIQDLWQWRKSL

Assay [1] concerns the target GST-HCC141 (GST fused to the HBc CTD, residues 141-183, WT), expressed in HEK293T (human hepatitis B virus (HBV)) (UniProt P03146). In words: pull-down; HEK293T transfected with GST-DCC or GST-HCC fusion constructs only; RNase A-treated lysate (50 mM Tris pH 8.0, 150 mM NaCl, 1 mM EDTA, 1% NP-40); GST pulldown on GSH affinity resin; endogenous B23 and I2PP2A detected by western blot (and Coomassie staining) (Fig. 5B, 8D). (In general: Immunoblotting shows a protein as a band on a membrane.)

Assay [2] deals with GST-HCC141-EEE, expressed in HEK293T (human hepatitis B virus (HBV)) (UniProt P03146). The description is as above.
The target of assay [3] is GST-DCC196-228 (GST fused to the DHBc linker region, residues 196-228), expressed in HEK293T (duck hepatitis B virus (DHBV)) (UniProt P0C6J7). The assay is described as above.
The target of assay [4] is I2PP2A-Flag-HA (human I2PP2A with C-terminal Flag and HA tags) (human) (UniProt Q01105). In words: co-IP; [35S]methionine-labelled proteins translated in rabbit reticulocyte lysate, DNase I and RNase A treated, bound to 3X-Flag-B23 or I2PP2A-Flag-HA antibody resin prepared from HEK293T cells; washed in lysis buffer with 0.1% NP-40; autoradiography (Fig. 7); only the target purified.

Assay [5] concerns the target 3X-Flag-tagged human B23/nucleophosmin (p3X-Flag-CMV-14-NPM) (human) (UniProt P06748). The assay is described as above.
In assay [6] the target is I2PP2A-Flag-HA (human I2PP2A with C-terminal Flag and HA tags) (human) (UniProt Q01105). The experiment in a line: co-IP; HEK293T cotransfected with GST-DCC fusion construct and 3X-Flag-B23 or I2PP2A-Flag-HA (1:1); RNase A-digested lysates; protein A/G resin prebound with anti-Flag (B23) or anti-Flag plus anti-HA (I2PP2A); 4 hours at 4°C; western blot for GST (Fig. 5A, 5C).

No constants are given. Whether binding was seen depends on the method and setting. In cells and extracts the contact can be indirect. Some results given as binding are weak or reduced against the parent protein; the word gives no strength.

Turning to “B23 (nucleophosmin, NPM1), endogenous in HEK293T cells (from UniProt P06748 1-294)”, the figures for the binding entry in assay [1], in assay [2] and in assay [3] were “no binding”, “binds weakly” and “binds”, respectively.
For “DHBc 1–228 (CTD-deletion mutant with the linker but without the phosphodomain), in vitro translated (from UniProt P0C6J7 1-228) (domain or fragment)”, the binding entry in assay [4] and in assay [5] was “binds weakly” in each case.
For the substance “GST-DCC196-228 (GST fused to the DHBc linker region, residues 196-228), expressed in HEK293T (from UniProt P0C6J7 196-228) (domain or fragment)”, the binding result in assay [6] was “binds”.
For “GST-DCC196-228 (linker region construct), in vitro translated in RRL (from UniProt P0C6J7 196-228) (domain or fragment)”, the binding result in assay [4] and in assay [5] was “binds weakly” each time.
As for “I2PP2A (SET, Taf-1β), endogenous in HEK293T cells (from UniProt Q01105-2 1-277)”, the binding result in assay [1] and in assay [2] was “no binding” throughout.
